{
  "source": "PubChem BioAssay AID1671193",
  "about": "(National Center for Advancing Translational Sciences (NCATS), 2021)",
  "note": "The whole screen tested about 150,000 compounds, of which about 180 (0.12%) were called active. Inconclusive means that the source gave no clear call. Such entries were picked first, then a sample of the others. The call rests on the fitted dose curve; in most records, active means well fitted cell-killing curve with a large enough effect; inconclusive means small, poorly fitted or top-dose-only effect, or effect the other way; inactive means flat fitted curve, though single readings scatter. A potency beside an inconclusive call is a rough fit, not a confirmed value. Potency means the concentration at half of the fitted maximal effect; tags describe the fitted curve by direction and shape.",
  "data": [
    {"assay": "GF-AFC viability counterscreen for inhibitors of alpha-synuclein gene (SNCA) expression; further: nearly all actives have a fitted effect of over 30% in size", "conditions": "HEK-293-SNCA-luc viability, GF-AFC fluorescence, 24 h; series mostly up to 57.1 µM", "how_it_was_run": "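Cytotoxicity counterscreen: after 24 h compound treatment of genome-edited SNCA-luciferase HEK-293 cells, live-cell protease substrate GF-AFC read by fluorescence after 30 min; activity scaled between DMSO (0%) and medium-only (-100%), curves Hill-fitted.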", "values": [
      {"smiles": "COc1ccccc1-c1nc2cnccn2c1NCCC(=O)Nc1ccc(C)cc1C", "Potency": "inconclusive: 39.8 µM [rising, single point]"},
      {"smiles": "Cc1ccc(CN2COc3ccc4c(C)cc(=O)oc4c3C2)cc1", "Potency": "inconclusive: 25.1 µM [rising, partial curve, poor fit]"},
      {"smiles": "CC(C)c1ccc(C2Sc3ccccc3NC3=C2C(=O)c2ccccc23)cc1", "note": "(stereo not drawn)", "Potency": "inconclusive: 25.1 µM [cytotoxic, single point]"},
      {"smiles": "COC(=O)C1=CN(CC(=O)NC(C)CCc2ccccc2)S(=O)(=O)N=C1C", "note": "(stereo not drawn)", "Potency": "inconclusive: 5.62 µM [cytotoxic, single point]"},
      {"smiles": "Cc1ncoc1C(=O)N1CCCCCC1c1nnc(-c2ccccc2)o1", "note": "(stereo not drawn)", "Potency": "inactive"},
      {"smiles": "O=C(CC1=C2CCCCC2N(Cc2ccccc2)C1=O)NCc1ccncc1", "note": "(stereo not drawn)", "Potency": "inactive"},
      {"smiles": "CCOC(=O)C1=CN(CC(=O)NCc2ccc(Cl)cc2)S(=O)(=O)N=C1C", "Potency": "inconclusive: 25.1 µM [cytotoxic, partial curve, poor fit]"},
      {"smiles": "COc1ccc(NC(=O)c2cc3c(N(C)Cc4ccccc4)nc(C)cn3n2)cc1OC", "Potency": "inconclusive: 3.98 µM [cytotoxic, partial curve, poor fit]"},
      {"smiles": "CC(C)Oc1cccc(-c2n[nH]c3c2CC(=O)N(Cc2ccccc2)C3)c1", "Potency": "inconclusive: 31.6 µM [cytotoxic, partial curve, poor fit]"},
      {"smiles": "Cc1cc(=O)cc(C(=O)N2CCC(O)(CN3CCOCC3)C(C)(C)C2)o1", "note": "(stereo not drawn)", "Potency": "inactive"},
      {"smiles": "CNC(=O)[C@@H]1CN(Cc2ccc(F)cc2F)C[C@H]1CO", "Potency": "inconclusive: 1.78 µM [cytotoxic, partial curve, poor fit]"},
      {"smiles": "COc1ccccc1-c1cc(C(=O)Nc2ccc(F)cc2)nn2cnnc12", "Potency": "inactive"},
      {"smiles": "CC1COC(Nc2ccc3ncnc(Nc4ccc(OCc5nccs5)c(Cl)c4)c3c2)=N1", "note": "(stereo not drawn)", "Potency": "inconclusive: 33.6 µM [cytotoxic, partial curve, poor fit]"},
      {"smiles": "CC(=O)c1cccc(NC(=O)Cn2c(=O)c(CNc3ccc(C)cc3)cc3cc4c(cc32)OCCO4)c1", "Potency": "inconclusive: 31.6 µM [cytotoxic, partial curve]"},
      {"smiles": "O=C(NCCc1ccccn1)c1cn2ccnc(-c3ccccc3)c2n1", "Potency": "inconclusive: 0.708 µM [cytotoxic, partial curve, poor fit]"},
      {"smiles": "c1cc(NC2CCNCC2)nc(-c2cnc3ccccn23)c1", "Potency": "inconclusive: 11.9 µM [cytotoxic, partial curve, poor fit]"},
      {"smiles": "CC(=O)N1CCC2(CC1)CN(C(c1ccccc1)c1ccccc1)C2", "Potency": "inconclusive: 39.8 µM [cytotoxic, single point]"},
      {"smiles": "CS(=O)(=O)Nc1ccc(C2(C(=O)NCc3ccccc3Cl)CCCCC2)cc1", "Potency": "inconclusive: 39.8 µM [cytotoxic, single point]"},
      {"smiles": "Cc1ccc(C(=O)N2CCN(C(=O)c3nc4cccnc4n(CCc4ccccc4)c3=O)CC2)cc1", "Potency": "inactive"},
      {"smiles": "O=C(c1ccc2nc[nH]c2c1)N1CCCC2(C1)Nc1cccnc1NC2=NC1CCCC1", "note": "(stereo not drawn)", "Potency": "inconclusive: 8.91 µM [cytotoxic, single point]"},
      {"smiles": "O=C(CCC1CCN(C(=O)[C@H]2C[C@@H]3C=C[C@H]2C3)CC1)N1CCC(Cc2ccccc2)CC1", "Potency": "inactive"},
      {"smiles": "COc1ccc(C(=O)N[C@H]2C[C@H]3C(=O)Nc4ccccc4C(=O)N3C2)cc1", "Potency": "inconclusive: 25.1 µM [cytotoxic, partial curve, poor fit]"},
      {"smiles": "Cc1ncc2n1C(=O)N(C1CCN(Cc3ccc(F)cc3)CC1)C2", "Potency": "inconclusive: 14.1 µM [cytotoxic, partial curve]"},
      {"smiles": "CC[C@H](C)/C=C(C)/C=C/C1=CC2=CC(=O)[C@]3(C)OC(=O)[C@@H](C(C)=O)[C@@H]3C2=CO1", "Potency": "inconclusive: 6.56 µM [rising, partial curve]"},
      {"smiles": "COc1ccc(Nc2ccnc(N3CCN(C(=O)c4cccc(Cl)c4)CC3)n2)cc1", "Potency": "inconclusive: 11.2 µM [cytotoxic, single point]"},
      {"smiles": "COc1ccc(-c2nc3n(n2)C(c2ccccc2F)C(C(=O)Nc2cccnc2)=C(C)N3)cc1OC", "note": "(stereo not drawn)", "Potency": "inconclusive: 31.6 µM [cytotoxic, single point]"},
      {"smiles": "COc1cccc(CC(=O)N2CC(Oc3ccc(-c4noc(-c5ccncc5)n4)cc3)C2)c1", "Potency": "inconclusive: 39.8 µM [cytotoxic, single point]"},
      {"smiles": "CCS(=O)(=O)c1ccccc1C(=O)N(Cc1cccnc1)c1nc2cc(C)c(C)cc2s1", "Potency": "inconclusive: 39.8 µM [cytotoxic, single point]"},
      {"smiles": "CCn1c(=N)c(C(=O)NCc2cccnc2)cc2c(=O)n3cc(C)ccc3nc21", "Potency": "inconclusive: 25.1 µM [rising, partial curve]"},
      {"smiles": "O=c1cc(-c2ccncc2)oc2c(-c3ccccc3Oc3ccccc3)nccc12", "Potency": "inactive"},
      {"smiles": "CCC(=O)Nc1sc2c(c1C(=O)Nc1ccccc1C)CCC(C)C2", "note": "(stereo not drawn)", "Potency": "inconclusive: 11.2 µM [rising, partial curve, poor fit]"},
      {"smiles": "CCn1ccc(C(=O)N2CCC(Oc3ccccc3-c3nc(-c4ccccc4)no3)C2)n1", "note": "(stereo not drawn)", "Potency": "inconclusive: 35.5 µM [cytotoxic, single point]"},
      {"smiles": "Cc1ccc(-c2cn3cccnc3n2)cc1NC(=O)C(C)(C)Oc1ccc(Cl)cc1", "Potency": "inconclusive: 10 µM [cytotoxic, partial curve, poor fit]"},
      {"smiles": "O=c1cc(-c2ccccc2)c2ccc3c(c2o1)CN(Cc1cccc(Cl)c1)CO3", "Potency": "inconclusive: 35.5 µM [rising, single point]"},
      {"smiles": "CNC(=O)[C@@H]1C[C@H](Oc2ccccc2)CN1C(=O)CCCc1c[nH]c2ccccc12", "Potency": "inconclusive: 3.16 µM [cytotoxic, single point]"},
      {"smiles": "O=[N+]([O-])c1ccc(Nc2ccccc2-c2ccccc2)c2nonc12", "Potency": "inconclusive: 15.2 µM [cytotoxic, partial curve, poor fit]"},
      {"smiles": "COc1ccc(C(=O)Nc2cccc(C(=O)OCc3cc(=O)n4nc(C5CC5)sc4n3)c2)cc1", "Potency": "inconclusive: 11.2 µM [cytotoxic, partial curve, poor fit]"},
      {"smiles": "Nc1c(C(=O)Nc2ccc(F)cc2)sc2nc(-c3cccs3)cc(C(F)(F)F)c12", "Potency": "inconclusive: 2.51 µM [rising, single point]"}
    ]}
  ]
}
